The list shows a part of the results. The energies were worked out here from pooled read counts, against the library average; single values are noisy.

The target in this assay is T1, Pho4 (S. cerevisiae) (UniProt P07270).
T1 sequence: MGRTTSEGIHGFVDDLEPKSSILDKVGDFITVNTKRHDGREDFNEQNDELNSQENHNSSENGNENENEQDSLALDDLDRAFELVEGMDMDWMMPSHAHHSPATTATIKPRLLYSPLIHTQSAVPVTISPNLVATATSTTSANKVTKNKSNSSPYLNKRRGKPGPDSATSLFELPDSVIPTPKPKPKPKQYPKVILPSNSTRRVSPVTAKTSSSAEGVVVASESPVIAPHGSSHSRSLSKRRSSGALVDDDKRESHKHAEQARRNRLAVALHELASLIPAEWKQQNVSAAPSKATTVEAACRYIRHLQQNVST
Nature of the assay: relative binding free energy (BET-seq); higher = weaker binding. Conditions: reference: library average.
As to GACGTCACGTGAGTAG, the “relative binding free energy” value was 0.54 kcal/mol.
Regarding ACGTTCACGTGTGTGG, the “relative binding free energy” value amounted to 0.22 kcal/mol.
For the sequence TTTCACACGTGTGTAG, the “relative binding free energy” value stood at 0.11 kcal/mol.
As for ATAGTCACGTGATGGC, the “relative binding free energy” value was found to be 0.2 kcal/mol.
Turning to ATGGACACGTGGGTCA, the “relative binding free energy” value was -0.18 kcal/mol.
With TGGCTCACGTGAGGAG, the “relative binding free energy” value was 0.33 kcal/mol.
With GGTGGCACGTGAGAGC, the “relative binding free energy” value turned out to be 0.36 kcal/mol.
In the case of TTAGTCACGTGTTTTT, the “relative binding free energy” value is 0.12 kcal/mol.
With GAACTCACGTGGTGTT, the “relative binding free energy” value stood at 0.2 kcal/mol.
For GGGCGCACGTGGGTAC, the “relative binding free energy” value is -0.08 kcal/mol.
TTTGCCACGTGTTTTT: the “relative binding free energy” value was -0.02 kcal/mol.
Consider GGTGGCACGTGGTCGG, for which the “relative binding free energy” value was -0.14 kcal/mol.
Turning to AGGGACACGTGATAAT, the “relative binding free energy” value is 0.22 kcal/mol.
In the case of GGTGACACGTGTGTGT, the “relative binding free energy” value worked out at 0.13 kcal/mol.
Take TCAGGCACGTGGGTGG: the “relative binding free energy” value is -0.32 kcal/mol.
Take AGTCTCACGTGGGAAT: the “relative binding free energy” value amounted to 0.18 kcal/mol.
Regarding TTCATCACGTGAGTTG, the “relative binding free energy” value was found to be 0.35 kcal/mol.
Turning to AAGCACACGTGGGGTG, the “relative binding free energy” value is -0.09 kcal/mol.
To TAATGCACGTGAACGT belongs 0.19 kcal/mol; to TATTTCACGTGGGGGA, 0.05 kcal/mol; to ATATTCACGTGAGGGG, 0.31 kcal/mol.
On to TGATTCACGTGAACTT, for which the “relative binding free energy” value came out at 0.39 kcal/mol.
To GGATTCACGTGATGAG belongs 0.47 kcal/mol.
Turning to GGTTGCACGTGATTTG, the “relative binding free energy” value came to 0.28 kcal/mol.
With GGGGCCACGTGCAGGT, the “relative binding free energy” value was -0.07 kcal/mol.
On to TGTGCCACGTGTTTAT, for which the “relative binding free energy” value is -0.04 kcal/mol.
To TTCGGCACGTGGTCGG belongs -0.26 kcal/mol; to TATTTCACGTGTCGCA, 0.39 kcal/mol.
As to GAGGTCACGTGAGAGG, the “relative binding free energy” value worked out at 0.37 kcal/mol.
Turning to AAAGACACGTGGTTTG, the “relative binding free energy” value worked out at 0.04 kcal/mol.
Turning to ATTGGCACGTGTCTAT, the “relative binding free energy” value is 0 kcal/mol.
Consider CCGAGCACGTGGTGGT, for which the “relative binding free energy” value is -0.15 kcal/mol.
Consider TGTGTCACGTGGTCGT, for which the “relative binding free energy” value was -0.01 kcal/mol.
GGGCGCACGTGGGCTT: the “relative binding free energy” value is -0.31 kcal/mol.
To TAAAGCACGTGTTTCT belongs -0.11 kcal/mol; to GTAGTCACGTGGTCGG, 0.08 kcal/mol.
For the sequence TATTGCACGTGGTAGT, the “relative binding free energy” value is -0.11 kcal/mol.
Take TGATACACGTGGGTTG: the “relative binding free energy” value was -0.09 kcal/mol.
In the case of GGCGTCACGTGGGTCG, the “relative binding free energy” value was determined as 0.08 kcal/mol.
For TTGAGCACGTGCGTGA, the “relative binding free energy” value was -0.1 kcal/mol.
Consider CGAGGCACGTGAGGGT, for which the “relative binding free energy” value worked out at 0.07 kcal/mol.
With GGGTCCACGTGAGTAG, the “relative binding free energy” value is 0.26 kcal/mol.
With ACTGGCACGTGTTGTA, the “relative binding free energy” value is -0.03 kcal/mol.
Regarding CGATGCACGTGGGGCG, the “relative binding free energy” value is -0.32 kcal/mol.
For GCGTGCACGTGTTGGT, the “relative binding free energy” value was -0.04 kcal/mol.
As to GAGTACACGTGCGTTA, the “relative binding free energy” value was 0.19 kcal/mol.
The same measure for GGAATCACGTGGGTAA: 0.02 kcal/mol; for GATGCCACGTGGTGGG: 0 kcal/mol; for GATAACACGTGAGGGT: 0.17 kcal/mol.
On to GGGTGCACGTGCTAGT, for which the “relative binding free energy” value is -0.04 kcal/mol.
Consider TAGGACACGTGGGGGT, for which the “relative binding free energy” value was -0.09 kcal/mol.
Regarding ACTAGCACGTGTGTAT, the “relative binding free energy” value came out at 0.06 kcal/mol.
As for ATGGTCACGTGGGGAG, the “relative binding free energy” value is 0.02 kcal/mol.
Take TTATTCACGTGTGCCG: the “relative binding free energy” value was determined as 0.29 kcal/mol.
To GGAACCACGTGGTTGT belongs -0.07 kcal/mol.
In the case of CGGATCACGTGGGATG, the “relative binding free energy” value was 0.13 kcal/mol.
Consider TTGAGCACGTGGACGG, for which the “relative binding free energy” value is -0.09 kcal/mol.
Regarding TTAGGCACGTGGATAA, the “relative binding free energy” value was -0.03 kcal/mol.
To TTGCGCACGTGGCAGA belongs -0.07 kcal/mol; to CTTTTCACGTGTTAGT, 0.25 kcal/mol.
TTGAACACGTGTGTAT: the “relative binding free energy” value was 0.11 kcal/mol.
Consider GGCGTCACGTGGAGCT, for which the “relative binding free energy” value was found to be 0.08 kcal/mol.
On to GCTGTCACGTGTTCGT, for which the “relative binding free energy” value was found to be 0.16 kcal/mol.
To TTGTCCACGTGGATTG belongs -0.01 kcal/mol.
To ATGTCCACGTGCGGGG belongs -0.08 kcal/mol; to AGGAACACGTGAGGGC, 0.37 kcal/mol.
With TCCGGCACGTGCGGTT, the “relative binding free energy” value is 0.06 kcal/mol.
To TGATCCACGTGGGGTG belongs -0.17 kcal/mol.
With GGGATCACGTGACGTT, the “relative binding free energy” value was found to be 0.39 kcal/mol.
To ATTTTCACGTGACAGG belongs 0.22 kcal/mol; to AACATCACGTGTTGTT, 0.21 kcal/mol.
Turning to CTGCGCACGTGGAGGT, the “relative binding free energy” value was -0.08 kcal/mol.
The same measure for TGCGACACGTGTTATG: -0.02 kcal/mol; for GTTGTCACGTGGAGGC: 0.19 kcal/mol.
The same measure for CATGTCACGTGAGGGG: 0.29 kcal/mol.
With TTACTCACGTGTTGGG, the “relative binding free energy” value was determined as 0.07 kcal/mol.
Consider GTTTACACGTGGCGGC, for which the “relative binding free energy” value was determined as 0.11 kcal/mol.
In the case of TAGTACACGTGTAGTT, the “relative binding free energy” value worked out at 0.07 kcal/mol.
In the case of TACTGCACGTGGTTTG, the “relative binding free energy” value is -0.12 kcal/mol.
Consider TGGAACACGTGGTTGT, for which the “relative binding free energy” value is 0.06 kcal/mol.
As for TTGTCCACGTGGGGGG, the “relative binding free energy” value was -0.06 kcal/mol.
As for CTTTACACGTGGGTGT, the “relative binding free energy” value worked out at 0.1 kcal/mol.
With CAGGACACGTGGGTGT, the “relative binding free energy” value was -0.08 kcal/mol.
CTACTCACGTGTGGTT: the “relative binding free energy” value came out at 0.24 kcal/mol.
To TTTTCCACGTGTTGCG belongs 0.19 kcal/mol; to AGTTACACGTGGAGAT, 0.12 kcal/mol.
For TTGATCACGTGGAGAA, the “relative binding free energy” value amounted to 0.21 kcal/mol.
Turning to TTATTCACGTGCGAGG, the “relative binding free energy” value was determined as 0.2 kcal/mol.
In the case of AGTATCACGTGCGTAT, the “relative binding free energy” value was 0.2 kcal/mol.
On to GAGGCCACGTGGTGTG, for which the “relative binding free energy” value is -0.04 kcal/mol.
For the sequence GGTATCACGTGCTGGT, the “relative binding free energy” value was found to be 0.2 kcal/mol.
On to CATAGCACGTGTGTAT, for which the “relative binding free energy” value is -0.06 kcal/mol.
To GCGGACACGTGGGTTA belongs -0.03 kcal/mol; to GTAGGCACGTGAGGAG, 0.15 kcal/mol.
For the sequence GGTTACACGTGGACTG, the “relative binding free energy” value worked out at 0.03 kcal/mol.
On to TCAGTCACGTGTTGGA, for which the “relative binding free energy” value turned out to be 0.09 kcal/mol.
With TAAAGCACGTGGGGGT, the “relative binding free energy” value was -0.16 kcal/mol.
GCGGTCACGTGGAGTT: the “relative binding free energy” value turned out to be 0.28 kcal/mol.
Take TTGGACACGTGGTACA: the “relative binding free energy” value came out at 0.14 kcal/mol.
Turning to TGCGGCACGTGGGCAA, the “relative binding free energy” value is -0.28 kcal/mol.
On to GCGGGCACGTGTGTTT, for which the “relative binding free energy” value was -0.07 kcal/mol.
ATCGACACGTGGGATG: the “relative binding free energy” value is -0.01 kcal/mol.
On to GGTAGCACGTGATGAG, for which the “relative binding free energy” value was found to be 0.09 kcal/mol.
To CGTAGCACGTGGATGT belongs -0.21 kcal/mol; to TGCTTCACGTGATGAT, 0.29 kcal/mol; to ATATACACGTGTTGAA, 0.02 kcal/mol.
The same measure for ATGTGCACGTGTAGCA: 0.08 kcal/mol; for TTTATCACGTGAGTTC: 0.35 kcal/mol.
For the sequence GAGGTCACGTGGGGTA, the “relative binding free energy” value was -0.03 kcal/mol.
As to TTGTTCACGTGAAGAG, the “relative binding free energy” value is 0.18 kcal/mol.
In the case of CGTTTCACGTGCGGTA, the “relative binding free energy” value turned out to be 0.14 kcal/mol.
On to TAAGGCACGTGTCTGT, for which the “relative binding free energy” value stood at 0 kcal/mol.
GTAGGCACGTGATGAA: the “relative binding free energy” value was 0.05 kcal/mol.
Turning to AGGGGCACGTGACGTA, the “relative binding free energy” value is -0.03 kcal/mol.
To GTGATCACGTGGTTGG belongs 0.07 kcal/mol.

(Values after the BET-seq Pho4 binding data (Le et al. 2018).)
